# Measurements as given in PubChem BioAssay (NCI).
# More than one record can exist for a structure, and the calls need not agree.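 In brief: 96-well plates, 48 h treatment, single concentration, percent growth endpoint.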 For part of its entries the source gives two or more results. The list is limited to them. The calls were made as follows: active = growth percent below 10; inactive = the rest. There may be further records. These are repeated runs of one drug, at its own concentration, as given; one value stands for one run. Marks such as (2×) stand for listed records that agree.
# What was measured:
# UACC-62 melanoma = assay: NCI-60 one-dose screen, 48 h (100 = growth as untreated, 0 = no growth, -100 = all killed); details: 25 µM
# LOX IMVI melanoma = assay: as above; details: 0.25 µM
smiles,measurement,setting,value
COc1cccc2c1C(=O)c1c(O)c3c(c(O)c1C2=O)C[C@@](O)(C(=O)CO)C[C@@H]3OC1CC(N)C(O)C(C)O1 (stereo partly specified),growth,UACC-62 melanoma; runs of 1994,"active: -91.6, -52.6, -71.9, -86.3, -81.8, -89.6, -90, -95.8, -83.3, -99.8 (2×), -33.3, -98.4, -55.3, -73.8, -90.3, -93.2, -99.5, -60.3, -54.8, -89.4, -82.5, -15.7, -46.9, -73, -98, -64, -54.5, -96.4, -29.5, -71.7, -68.9% and inactive: 95%"
same,growth,UACC-62 melanoma; runs of 1995,"active: -43.7, -55, -81.9, -50.1, -93.1, -32.6, -72.9, -35.4, -93.6, -53.2, -77, -77.2, -59.7, -48.6, -84.6, -100 (4×), -83.1, -85.8, -75, -87.7, -50.6, -79.1, -91.4, -82.3, -57.9, -93.9, -86.7, -83, -67.1, -88.8, -66, -89.1, -67.8, -93.5, -97, -90.7, -93.3, -85.1, -94.8, -92, -91.8, -77.9, -82.8, -92.9, -80.7, -78.7, -85.3 (2×), -96.2%"
same,growth,UACC-62 melanoma; runs of 1996,"active: -60.5, -74 (2×), -78.6, -81.2, -44.6, -92.9, -65.5, -52.6, -76, -79.8, -100 (13×), -74.4, -77.8 (2×), -96.6, -83.3, -89.7, -89, -94.7 (2×), -45, -84 (2×), -95.6, -97.8, -74.9, -88.4, -59.7, -84.9, -93.1, -66.9, -76.4, -50.1, -87.9, -88.8, -56.7, -95 (2×), -94.2, -91.2, -69.2, -70.8, -73.5, -95.2, -83.8, -88.2, -74.1, -90.1 (2×), -97.4 (2×), -72.7, -60.4, -80.2 (2×), -97.7, -64.5, -79.5, -94.9, -79.9, -89.5, -85.9, -85, -63.4, -83.4, -63.5 (2×), -98.7, -71, -55.2, 4.31, -89.8, -93.5, -86.2, -92.3, -82.1, -87.2, -81.5, -75.9, -58.9, -84.1, -86.8, -51.9, -97.5, -88.9, -91.6, -95.7, -54.2, -97.9% and inactive: 83, 90.8, 105, 50.1%"
same,growth,UACC-62 melanoma; runs of 1997,"active: -88.5, -71.5, -96.7, -80, -76.1, -99.2, -49.3, -100 (2×), -83.8, -74.5, -85.4 (2×), -89.2, -97.2, -93.4, -96.1, -72.7, -75.3, -77.6, -80.7, -75.9, -87.7 (2×), -92, -86.6, -80.2, -82.2, -93.6, -93.3, -77.9, -54.5, -82, -95.4, -96.6, -56.7, -67.7, -63.6, -23.1, -76, -24.8, -71.6, -53.7, -38.1, -77.5, -38.5, -58.8, -83.6, -92.2, -95.3, -87.6, -86.1, -53.6, -62.7, -48.1, -90.6% and inactive: 66.7%, 91.5%"
same,growth,UACC-62 melanoma; runs of 1998,"inactive: 105% and active: -52.3, -81 (4×), -88.9, -96.8, -99.2, -96 (2×), -91.7 (2×), -85.7, -72.3, -86.6, -93.5, -62.8, -60.8, -86.3, -74.1, -72, -84.8, -95.9, -91.1, -89.4, -87.2, -46.9, -66.9, -66.5, -90.8, -35.1, -41.8, -83.6, -52.2, -61.6, -49.7, -64.3, -70.7, -86.1, -83.1 (3×), -76.4, -90.5, -94.8 (2×), -76.7, -73.8, -80.9, -96.4, -85.4, -92.4, -84.7 (2×), -69.5, -70.6, -82.5, -77.4, -78.4, -81.3, -87, -68.1, -77.2, -83.5, -80.6 (2×), -80, -91.9, -75.4, -89.7, -56.2%"
same,growth,UACC-62 melanoma; runs of 1999,"active: -100 (5×), -74.7, -94.9, -86.1, -84.9, -70.2, -86.5, -79.4, -74.5, -83.9, -79.6, -96.1, -89.6, -89.5, -78.4, -79, -81.5, -83.1, -83.2%"
same,growth,UACC-62 melanoma; runs of 2000,"active: -100% (2×), -96.4%, -99.1%"
same,growth,LOX IMVI melanoma; runs of 2006,inactive: 15.1% and active: 9.7%
same,growth,LOX IMVI melanoma; runs of 2007,"inactive: 27.9, 19.6, 18.6, 19.9, 21.7, 26.5, 16.3, 19.7, 15.9, 15.6, 34.6, 20.1 (2×), 24.1, 31, 20.5, 23.7 (2×), 14.6, 26.8, 25, 24.6, 10.8, 32.1, 24.5, 23.6, 24.4, 22.4, 25.2, 24.7, 33.4, 24.2 (2×), 30.3, 31.2, 25.5, 25.8, 28.9, 29.3% and active: -22.8%"
same,growth,LOX IMVI melanoma; runs of 2008,"inactive: 32.6, 24, 22.7, 28.2, 20.8, 30, 26, 25.2 (2×), 21.7, 29.7, 15.1, 22.1, 28.6, 94, 20.4, 10.4, 10.3, 28.8, 26.6, 23.1, 16.3, 21.9 (2×), 34, 22.6, 13.9, 19.6, 29.3, 18.9% and active: -46, -2.98, -8.98, 2.15, 3.18, -18.2, -8.36, -14.4, -18.3, -17.8, -5.01, 5.15, 1.92, 3.11, -36.6, -23.6, 8.56, 2.62, -6.08, -31.1, -2.15, -4.09, 7.82%"
same,growth,LOX IMVI melanoma; runs of 2009,"active: 2.19, 8.36, 6.41, 3.7, 7.79, 9.17, 6.06, 9.71, 8.55, 6.51, 0.203, 9.65% and inactive: 24.1, 14.1, 19.2 (2×), 25.2, 24.5, 19.9 (2×), 23.9, 17.6 (2×), 24.9, 21.3, 14.4 (2×), 14.6, 24.2, 17.9, 13.4, 12, 25.1, 17.8, 23.3, 24.7, 27.7, 15.1, 21.4, 19.5, 29.2, 15.6, 12.9 (2×), 21.7, 29.7, 25.3, 11.4, 11.7 (2×), 16.8, 19.6, 11.8 (2×), 12.7 (3×), 12.3 (2×), 10.7, 11.3, 30.7, 22.3, 15.9, 10.2%"
